172 sequences from PMC10668032 can be followed below.

The other results are listed elsewhere or left out. At the low end of the ranking the order means little.

The target in this assay is SIX1-Q177R homeodomain (UniProt Q15475). The assay can be described thus: universal protein binding microarray. Particulars: Universal all-10-mer PBM (8x60K, AMADID 030236), 300 nM GST-tagged protein, Alexa Fluor 488 anti-GST; buffer, salt, pH and temperature not stated; high values mean tight binding; most listed sequences are background and not binding sites; double strand, one strand shown.
Take AAGGCATG: the binding signal was -0.184 E-score. Consider GCTGGGGA, for which the binding signal was -0.0864 E-score.

For GCTTACGA, the binding signal was -0.148 E-score. Take TCCATTCA: the binding signal is -0.0755 E-score. Turning to GAATTACC, the binding signal was -0.0299 E-score. With ACACTCAT, the binding signal turned out to be 0.388 E-score. Regarding AACGTCCC, the binding signal amounted to 0.0168 E-score. The same measure for CTGTATAA: -0.111 E-score. In the case of CGGCCCTA, the binding signal is -0.164 E-score.

As to GACTAATC, the binding signal is -0.0535 E-score. As for CAGCGACG, the figure is -0.0388 E-score; as for ATTTTCAA, -0.156 E-score; as for CGCACGGA, 0.0155 E-score.

For TAGAGCGA, the binding signal is -0.112 E-score. The same measure for ACACGTGC: 0.383 E-score; for ATCCCTAA: -0.0953 E-score; for CCATGCGC: -0.162 E-score. ATCGCGCA: the binding signal is -0.0917 E-score. Consider CGCTGCCA, for which the binding signal was -0.196 E-score. The same measure for ATCGGTCG: -0.148 E-score. As for AGGACAAT, the figure is -0.0174 E-score; as for CAAAATCC, 0.075 E-score; as for AGCATAAT, -0.122 E-score. As to CAGGTAGG, the binding signal turned out to be 0.0913 E-score. For GCTGCTCA, the binding signal is -0.139 E-score.

On to CTCTTAAC, for which the binding signal is -0.0233 E-score. As for CTGAGATC, the figure is -0.119 E-score. With GGGGCATA, the binding signal worked out at 0.00299 E-score. For AACTCGAA, the binding signal is -0.174 E-score.

As for GCTATGGA, the binding signal was -0.0524 E-score. In the case of CTAAATAC, the binding signal was -0.114 E-score. As for GCAAGACC, the figure is -0.0777 E-score; as for ATGGTATC, 0.334 E-score. As for GAACAGGC, the figure is -0.0699 E-score. As for TGCCAAAA, the figure is -0.101 E-score. Take AGGCATGG: the binding signal is -0.103 E-score.

On to GAAAGTTA, for which the binding signal is -0.0553 E-score. The same measure for ATTGCGTA: -0.09 E-score; for GGATCTGA: 0.194 E-score; for GCTGACGA: -0.276 E-score. Turning to CTACCTGA, the binding signal was -0.0091 E-score. With ATGCCTCA, the binding signal is -0.104 E-score. With GGTGCCCA, the binding signal came to 0.0265 E-score. Regarding GGAGCTAA, the binding signal was -0.0861 E-score. The same measure for GTGTGAGA: 0.291 E-score; for ACCGTCTC: 0.0739 E-score.

Turning to GATAGCAA, the binding signal is -0.122 E-score. As for CATCCTTC, the figure is -0.117 E-score; as for GAGCGTGA, -0.103 E-score.

Turning to AGGTGTGC, the binding signal worked out at 0.322 E-score. Take AATCAATT: the binding signal was -0.0901 E-score. Consider GGTTCACA, for which the binding signal was determined as 0.18 E-score.

With ATGCTGCC, the binding signal was -0.158 E-score.

Turning to AAACAACC, the binding signal is -0.234 E-score.

In the case of GGGTTCCA, the binding signal was determined as 0.106 E-score. Regarding TTCCCAAA, the binding signal is -0.0477 E-score.

For AATGCCAT, the binding signal was -0.3 E-score. Consider AGGGCTTG, for which the binding signal is -0.155 E-score.

With CGGTTCTA, the binding signal is -0.176 E-score.

For CAAGCACA, the binding signal is 0.0903 E-score.

Take AAATGATC: the binding signal is -0.176 E-score. CGCAGGCA: the binding signal is 0.0169 E-score. For the sequence TGAATACA, the binding signal was -0.0283 E-score.

As for GGACGTGA, the binding signal was -0.164 E-score. Turning to CAGAAAGC, the binding signal was -0.266 E-score. In the case of ATACAGTA, the binding signal was found to be 0.148 E-score. The same measure for AAGTAAGA: -0.193 E-score; for CGCCGACC: 0.057 E-score.

With AGTTCATC, the binding signal was -0.0814 E-score. As for AATTAAGG, the binding signal was -0.0173 E-score. For AACGCGGC, the binding signal turned out to be 0.0656 E-score.

Regarding ATCATAGA, the binding signal was -0.0945 E-score. Take CATGGACC: the binding signal is -0.0734 E-score. On to GAACCGTC, for which the binding signal is -0.341 E-score. Take CCCGCGTA: the binding signal is 0.154 E-score. With GGAACTAA, the binding signal was -0.118 E-score.

With GCACCCCC, the binding signal turned out to be 0.311 E-score. On to ACCTTCTG, for which the binding signal came out at 0.0534 E-score. Regarding TGCTCGAA, the binding signal was -0.136 E-score. As for AGCCCTCA, the binding signal is -0.175 E-score. As for CACAAAGG, the figure is 0.0813 E-score. For the sequence CCGCCTTA, the binding signal turned out to be 0.0759 E-score. With AGCGCAAT, the binding signal is -0.0836 E-score. As to GCATTGTA, the binding signal was -0.0533 E-score. For the sequence ACGCGTTC, the binding signal was -0.0207 E-score. Take ACTCTTTA: the binding signal was -0.0307 E-score.

For the sequence CAATTCTG, the binding signal is -0.115 E-score. Turning to GCGGAAAA, the binding signal is -0.168 E-score.

As to CGATATGC, the binding signal was -0.0535 E-score. The same measure for GCGCCTGA: -0.207 E-score. As to CCGTGCTC, the binding signal is 0.226 E-score. As for CGTTCTTA, the figure is -0.181 E-score; as for CGCGGCAC, 0.0937 E-score. With ACTTGTTC, the binding signal was determined as 0.051 E-score. The same measure for GGTACGAA: -0.00792 E-score; for ACTCTCAG: -0.0985 E-score. For the sequence ATCTTTCG, the binding signal was -0.243 E-score.

For the sequence ACGGCGAT, the binding signal stood at 0.119 E-score.

With ACAAAGGT, the binding signal is -0.00545 E-score. In the case of AACGCCTC, the binding signal was -0.0265 E-score. On to CCTTCTCC, for which the binding signal is -0.132 E-score. As to GTCAAGCA, the binding signal worked out at 0.0299 E-score. As for CATGTTGG, the binding signal is -0.143 E-score. Consider AACCTTTG, for which the binding signal was -0.197 E-score. In the case of CAGCATGA, the binding signal is -0.0327 E-score. As to CGATGGCG, the binding signal is -0.14 E-score.

For CCCGCCTA, the binding signal turned out to be 0.115 E-score. With GCCGATTA, the binding signal is -0.0279 E-score. As for GCCCTCAC, the figure is 0.00021 E-score; as for CTTCCGGC, -0.0371 E-score. As for CACAGTGC, the figure is 0.083 E-score; as for CCGGGCCG, 0.0575 E-score. Turning to CGAATTCG, the binding signal was -0.134 E-score.

With ATATCTAA, the binding signal was -0.24 E-score. With TCATATAA, the binding signal was -0.0684 E-score. ACTCGGAG: the binding signal was found to be 0.133 E-score. As for AAGTAACG, the binding signal was -0.0723 E-score.

As to CGAAGGAG, the binding signal was -0.0784 E-score.

In the case of ATTAAGCG, the binding signal was -0.0725 E-score. For the sequence ACGCGAAC, the binding signal was found to be 0.0156 E-score.

For the sequence ACTAACTG, the binding signal is -0.00822 E-score. The same measure for TGTGGTAA: 0.0139 E-score. With GACGTCAA, the binding signal is -0.181 E-score. On to ACGCCCTA, for which the binding signal is 0.0842 E-score. Turning to TGCGGCAA, the binding signal is -0.189 E-score. As to AGCGAATC, the binding signal is -0.221 E-score. As for AGGTTCGG, the figure is -0.0213 E-score.

In the case of ATCCCTGG, the binding signal worked out at 0.0686 E-score.

Consider TCTCTCAA, for which the binding signal is -0.0169 E-score.

With CTGCACTA, the binding signal turned out to be 0.0446 E-score. For CAGGCGAG, the binding signal amounted to 0.0213 E-score. Consider ACCCTGCT, for which the binding signal came to 0.19 E-score.

Consider CCACTGTC, for which the binding signal was -0.195 E-score.

CCAGGCTC: the binding signal is -0.0822 E-score. Regarding AGGCAAAA, the binding signal was -0.165 E-score.

On to ACCACCAG, for which the binding signal was found to be 0.089 E-score.

With GCAAATCA, the binding signal is -0.152 E-score. On to ACGGCAGT, for which the binding signal was -0.0519 E-score. Turning to GACAAGTA, the binding signal is -0.0441 E-score. ACGGGGCG: the binding signal worked out at 0.118 E-score. In the case of ATTGTGAG, the binding signal is -0.129 E-score. In the case of GATCGGGC, the binding signal is 0.0277 E-score. As for CAATAATG, the figure is -0.135 E-score. Turning to CCCTGATC, the binding signal turned out to be 0.0981 E-score. Take CTGTGCCC: the binding signal is -0.0583 E-score. CAATTTAG: the binding signal is 0.116 E-score. Turning to ATCCAATA, the binding signal was 0.00085 E-score.

Turning to CAGTCCCG, the binding signal is -0.0934 E-score.

For the sequence CGGGGAGA, the binding signal amounted to 0.0507 E-score. Take AAGAATTA: the binding signal was -0.148 E-score. For TAAGTGAA, the binding signal is -0.156 E-score. With CCAATTTC, the binding signal is -0.176 E-score. Regarding AAAATACT, the binding signal was -0.0919 E-score. With CCGGGGAA, the binding signal came out at 0.18 E-score. Regarding TAGTGCGA, the binding signal was -0.187 E-score. As for ATCAGAGA, the figure is 0.101 E-score; as for TCCGTCCA, -0.0497 E-score. The same measure for CCCCAAGG: 0.218 E-score; for ACTCCGGC: 0.233 E-score; for AGCCAATA: -0.2 E-score. As for GACAGGTC, the figure is -0.188 E-score; as for CTTCTGAC, 0.00458 E-score; as for TCAACACA, 0.149 E-score. CAATTGTC: the binding signal was -0.0899 E-score. As for AAGCCTAG, the figure is -0.25 E-score; as for GACAGGGC, 0.162 E-score; as for CGTGTCCC, 0.398 E-score. Consider AATCAATG, for which the binding signal is -0.212 E-score. Turning to CCGGTACG, the binding signal is -0.11 E-score.

For CGATCGCC, the binding signal was -0.148 E-score. As to AACACCGT, the binding signal came out at 0.467 E-score. In the case of CTTATAAC, the binding signal stood at 0.12 E-score.
